PubChem BioAssay (Tox21)
Where “and” joins values, the source holds several entries; their conditions need not be identical. Identical values can stand only once. Inconclusive means that the source gave no clear call. Such entries were picked first, then a sample of the others. Where the call is inconclusive, the potency comes from a doubtful curve fit. Calls of active or inactive are those of the source. Calls follow the shape of the dose curve; as a rule, active = well fitted activation curve with a large enough effect in the signal ratio in the repeat runs (not every such curve was filed as active); inconclusive = weak or mixed curves; inactive = flat fitted curve, though single readings scatter; the % refers to the signal ratio.

assay: qHTS assay to identify small molecule agonists of H2AX (AID 1224845); details: CHO-K1 phospho-H2AX Ser139 HTRF, 3 h; series mostly up to 154 µM
Procedure, shortened: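 Wild-type CHO-K1 cells plated overnight, then exposed 3 hr at 37C to compounds at 15 concentrations (0.76% DMSO). Lysed, then HTRF anti-pH2AX(S139)-cryptate/anti-H2AX-d2 detection after 24 hr at room temperature; emissions 665 and 620 nm.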
Potency is read from the fitted curve at half-maximal effect; tags tell the direction and shape of the fitted curve or compound fluorescence and quenching.

Q: With CN(C)c1ccc(C(=N)c2ccc(N(C)C)cc2)cc1 as the compound, how does the Potency read?
A: inconclusive: 99.5 µM [activator] and inconclusive: 97 µM [activator]

Q: With COc1cnc(NS(=O)(=O)c2ccc(N)cc2)nc1 as the compound, how does the Potency read?
A: inactive

Q: Which Potency does the source give for CCCCC(CC)COC(=O)CCCCCCCC(=O)OCC(CC)CCCC (stereo unspecified) here?
A: inconclusive: 127 µM [activator, single point]

Q: With COC(=O)C(C)=O as the compound, how does the Potency read?
A: inactive

Q: For COC(=O)c1ccc(C(=O)OC)cc1, which Potency is on record?
A: inconclusive: 45.6 µM [falling, partial curve, poor fit]

Q: For CC1(C)CCC(C)(C)c2cc(NC(=O)c3ccc(C(=O)O)cc3)ccc21, which Potency is on record?
A: inconclusive: 55.2 µM [activator, partial curve, poor fit]
